What all share (test): Primary Screen for Target Class Profiling of Small Molecule Inhibitors of Methyltransferases
In assay [1] the target is Glycine N-methyltransferase (Homo sapiens) (UniProt Q14749). The following applies: purified enzyme, MTase-Glo SAH luminescence; measured here: GNMT inhibition; at 40 µM; stronger effect = lower value. The essentials:
(§1)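 Each enzyme was reacted with SAM and its substrate, with compounds tested once at 40 uM; SAH formed was read by MTase-Glo luminescence.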

Assay [2] has as its target Guanidinoacetate N-methyltransferase (Homo sapiens) (UniProt Q14353). The settings on record: purified enzyme, MTase-Glo SAH luminescence; measured here: GAMT inhibition; at 40 µM; stronger effect = lower value. In a few lines:
as §1

Assay [3] concerns the target Histamine N-methyltransferase (Homo sapiens) (UniProt P50135). The following applies: purified enzyme, MTase-Glo SAH luminescence; measured here: HNMT inhibition; at 40 µM; stronger effect = lower value. In a few lines: as §1
Assay [4] concerns the target Nicotinamide N-methyltransferase (Homo sapiens) (UniProt P40261). The following applies: purified enzyme, MTase-Glo SAH luminescence; measured here: NNMT inhibition; at 40 µM; stronger effect = lower value. The essentials: as §1
The target in assay [5] is Phenylethanolamine N-methyltransferase (Homo sapiens) (UniProt P11086). The following applies: purified enzyme, MTase-Glo SAH luminescence; measured here: PNMT inhibition; at 40 µM; stronger effect = lower value. In a few lines:
as §1

The other results are listed elsewhere or left out. Further columns of the screen follow, without active or inactive calls.
% is scaled to controls: 0 for no effect and ±100 for the full control effect.

For the molecule `COc1ccc(C(=O)N2CCOCCNC(=O)[C@H]3CCCC[C@H]32)c(OC)n1`, the activity change, negative = inhibition in assay [1] was -0.521%; in assay [2], -2.13%; in assay [3], -0.082%; in assay [4] it was -3.02%; in assay [5] it was -5.97%.
Turning to `Cc1cnc(C2CCC2)n1CCC1CCN(C(=O)c2ccc3ccccc3n2)CC1`, the activity change, negative = inhibition in assay [1] was -5.78%; in assay [2] it was -4.91%; in assay [3], -36.8%; in assay [4], -15.9%; in assay [5], -3.91%.
For `COc1ccccc1CN1C(=O)c2cc3sccc3n2CC1(C)C(=O)NC1CCCCC1` (stereo not drawn) the same measures were 6.13%, 0%, 9.09%, 11.3% and 4.65%.
For `COc1ccc2cc3n(c2c1)CC(C)(C(=O)NC1CCCCC1)N(C1CCCCCC1)C3=O` (stereo not drawn) the same measures were 1.23%, 2.18%, 4.41%, -3.69% and -3.79%.
For `CC(C[N+](C)(C)C)OC(N)=O` (stereo not drawn) the same measures were -0.788%, 3.91%, -0.61%, -7.33% and 3.08%.
Regarding `COc1ccccc1CNC(=O)C1(C)Cn2cnc(C(=O)NCc3ccc(C)cc3)c2C(=O)N1C1CC1` (stereo not drawn), the activity change, negative = inhibition in assay [1] turned out to be 5.11%; in assay [2] it was 0%; in assay [3], 8.41%; in assay [4], 8.47%; in assay [5] it was 10.1%.
With `O=C(NC1CC1)C1c2ccccc2C(=O)N(C2CCCCC2)C12CCCCC2` (stereo not drawn), the activity change, negative = inhibition was -3.92% in assay [1]; 0.745% in assay [2]; -0.241% in assay [3]; -4.01% in assay [4]; 2.63% in assay [5].
For `CC1(C(=O)NC2CCCCC2)Cn2c(cc3occc32)C(=O)N1Cc1cccc(Cl)c1` (stereo not drawn) the same measures were -1.89%, -12.1%, 7.21%, -9.72% and -7.06%.
For `O=C(c1ccc(-c2ccco2)cc1)N1CCOC(c2ccccc2)C1` (stereo not drawn) the same measures were -12.6%, -1.07%, -2.06%, -3.38% and -3.86%.
For `CC1CCC(NC(=O)C2(C)Cn3c(cc4occc43)C(=O)N2Cc2ccc(OC(C)C)cc2)CC1` (stereo not drawn) the same measures were 2.1%, 1.1%, 5.08%, -1.08% and 2.76%.
Take `CN(CC1CCN(CCc2ccc(Cl)cc2)CC1)C(=O)c1ccccc1C#N`: the activity change, negative = inhibition is -2.7% in assay [1]; 4.08% in assay [2]; -1.56% in assay [3]; -4.57% in assay [4]; 10.2% in assay [5].
`Cn1c(=O)c2ccc(C(=O)NC3CCCCC3)cc2n2c(SCc3ccccc3F)nnc12`: the activity change, negative = inhibition in assay [1] is -0.503%; in assay [2], 0.845%; in assay [3] it was -1.1%; in assay [4] it was -1.83%; in assay [5], 4.19%.
For `CCCN1CCN(C(=O)C2(c3ccc(NC(=O)C4CC4)cc3)CCCCC2)CC1` the same measures were -5.05%, -7.09%, -6.19%, -10.6% and -2.58%.
For `Cc1cc(C(C#N)c2ccc(Cl)cc2)c(Cl)cc1NC(=O)c1cc(I)cc(I)c1O` (stereo not drawn) the same measures were -47.9%, -77.2%, -16.6%, -95.6% and -91.6%.
For `Cc1c(C2=CCN(C(=O)N(C)C(C)C)CC2)nnn1-c1cccnc1F` the same measures were -5.08%, -19.8%, 3.26%, -30.2% and -6.76%.
Turning to `CCCn1c(=O)c2cc(F)ccc2n2c(SCC(=O)Nc3cc(OC)cc(OC)c3)nnc12`, the activity change, negative = inhibition in assay [1] amounted to 7.47%; in assay [2] it was 0%; in assay [3] it was 11.1%; in assay [4], 5.04%; in assay [5], 7.19%.
As to `COc1ccc(CN2CCC(N3Cc4cccn4C3=O)CC2)cc1`, the activity change, negative = inhibition in assay [1] was -5.94%; in assay [2], -3.08%; in assay [3], -6.68%; in assay [4], -5.62%; in assay [5], -24.7%.
For `Cc1cccc(N2C(=O)CSc3c(c4ccccc4n3C)C2C(=O)NCc2ccccc2)c1C` (stereo not drawn) the same measures were 5.94%, 0.603%, 1.56%, -0.011% and 6.98%.
For `CNC(=O)[C@H]1O[C@@H](n2cnc3c(NCc4ccc(N)c(I)c4)ncnc32)[C@H](O)[C@@H]1O` the same measures were 0.66%, 0.562%, 7.94%, -4.41% and 4.29%.
As to `COc1ccc(C[C@H](NC(=O)[C@H](C)NC(=O)CN2CCOCC2)C(=O)N[C@@H](Cc2ccccc2)C(=O)[C@@]2(C)CO2)cc1`, the activity change, negative = inhibition was -7.64% in assay [2], -15.2% in assay [4] and 2.15% in assay [5].
Consider `COC(=O)[C@H]1CN(C(=O)NC(C)C)CCN1C(=O)c1cccnc1`, for which the activity change, negative = inhibition in assay [1] was -5.54%; in assay [2] it was -11.4%; in assay [3], -2.26%; in assay [4], -7.14%; in assay [5], -1.84%.
On to `CC1(C)C2CC=C(COC3OC(COC4OCC(O)(CO)C4O)C(O)C(O)C3O)C1C2` (stereo not drawn), for which the activity change, negative = inhibition in assay [1] was 0%; in assay [2], -4.28%; in assay [3] it was 0.148%; in assay [4] it was -14.5%; in assay [5] it was 2.61%.
For `CC1CCC(NC(=O)C2(C)Cn3c(cc4occc43)C(=O)N2Cc2cccs2)CC1` (stereo not drawn) the same measures were -5.48%, 4.5%, 0.458%, -7.36% and -4.1%.
For `COc1ccc(-c2cc3n(n2)CC(C)(C(=O)NCc2ccccc2)N(c2ccc(Cl)cc2)C3=O)cc1` (stereo not drawn) the same measures were 1.06%, 4.67%, 4.78%, 2.06% and -1.74%.
`OC1CCC(Nc2ncc3nc(Nc4c(F)cc(F)cc4F)n([C@H]4CCOC4)c3n2)CC1` (stereo partly drawn): the activity change, negative = inhibition in assay [1] is -2.08%; in assay [2], -7.65%; in assay [3] it was 7.18%; in assay [4], -22.7%; in assay [5], -1.53%.
For `O=C(CCc1c[nH]c2ccccc12)NC1CCc2n[nH]c(=O)n2CC1` (stereo not drawn) the same measures were -2.03%, -3.36%, 0.183%, -5.46% and -6.73%.
Consider `CCN1C(=O)Cc2ccccc2C1C(=O)N(C)Cc1ccco1` (stereo not drawn), for which the activity change, negative = inhibition is -12% in assay [1]; -6.36% in assay [2]; -3.45% in assay [3]; -13.1% in assay [4]; -12.2% in assay [5].
On to `Cc1ccc(Cn2c(=O)c3ccccc3n3c(CCC(=O)N4CCN(C5CCCCC5)CC4)nnc23)cc1`, for which the activity change, negative = inhibition in assay [1] was -8.87%; in assay [2], 4.84%; in assay [3] it was -4.66%; in assay [4], 5.77%; in assay [5], -5.3%.
For `Cc1ccccc1-c1nc(Cn2ccnc2C(C)C)c(C)o1` the same measures were -9.43%, -13.1%, -18.6%, -21% and -10.1%.
For `CCCN1C(=O)c2c(-n3cccc3)c3cc(C)ccc3n2CC1(C)C(=O)NC1CCCC1` (stereo not drawn) the same measures were -7.95%, 3.49%, -7.01%, -20.7% and -4.71%.

The values are drawn from PubChem BioAssay AID1745853 (National Center for Advancing Translational Sciences (NCATS), 2022).
